Test results as given in the supplement of paper PMC9151546.
Structures can show the parent of a compound that is named as a salt. Single values are uncertain, as repeats are few or missing.

Assays:
[1] = tested on: CHO-K1; assay: micronucleus frequency (% of nucleated events); higher = more micronuclei (genotoxic)
[2] = tested on: CHO-K1; assay: relative survival (nuclei to bead ratio vs DMSO control) (% of vehicle control); higher = more surviving cells
[3] = tested on: CHO-K1; assay: hypodiploid nuclei frequency (% of nucleated events); higher = more hypodiploid events (aneugenic)
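For hypodiploid nuclei frequency (% of nucleated events) in this document: hypodiploid nuclei gated on a flow cytometer with 488 nm excitation after SYTOX Green staining, cultures at 37 °C, positive controls vinblastine without S9 and cyclophosphamide with S9.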
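For micronucleus frequency (% of nucleated events) in this document: cells lysed with nuclei stained by SYTOX Green, then micronucleus-gated events counted against nucleated events by flow cytometry with 488 nm excitation.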
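For relative survival (nuclei to bead ratio vs DMSO control) in this document: Lysed-cell nuclei stained with SYTOX Green and counted against counting beads by flow cytometry at 488 nm excitation, with vinblastine (no S9) and cyclophosphamide (plus S9) as positive controls.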

Nc1ccn([C@@H]2O[C@H](CO)[C@@H](O)[C@@H]2O)c(=O)n1 [Cytarabine hydrochloride]
Conditions	hypodiploid nuclei frequency, [3] [%]	micronucleus frequency, [1] [%]	relative survival, [2]
concentration: 4.5 (µM), S9 metabolic activation: with S9, exposure time: 3-4 hours	0.18	0.74	112
concentration: 4.5 (µM), S9 metabolic activation: without S9, exposure time: 24 hours	0.68	2.7	58.3
concentration: 5.63 (µM), S9 metabolic activation: with S9, exposure time: 3-4 hours	0.16	1.06	111
concentration: 5.63 (µM), S9 metabolic activation: without S9, exposure time: 24 hours	0.84	3	55.1
concentration: 7.04 (µM), S9 metabolic activation: with S9, exposure time: 3-4 hours	0.26	0.94	109
concentration: 7.04 (µM), S9 metabolic activation: without S9, exposure time: 24 hours	0.3	1.76	56.8
concentration: 8.8 (µM), S9 metabolic activation: with S9, exposure time: 3-4 hours	0.16	1.8	94.2
concentration: 8.8 (µM), S9 metabolic activation: without S9, exposure time: 24 hours	0.24	1.54	46.7
concentration: 11 (µM), S9 metabolic activation: with S9, exposure time: 3-4 hours	0.24	2.34	115
concentration: 11 (µM), S9 metabolic activation: without S9, exposure time: 24 hours	0.2	1.92	50.7
concentration: 13.7 (µM), S9 metabolic activation: with S9, exposure time: 3-4 hours	0.24	1.72	103
concentration: 13.7 (µM), S9 metabolic activation: without S9, exposure time: 24 hours	0.38	2.06	60.5
concentration: 17.2 (µM), S9 metabolic activation: with S9, exposure time: 3-4 hours	0.18	1.96	117
concentration: 17.2 (µM), S9 metabolic activation: without S9, exposure time: 24 hours	0.26	1.8	53.4
concentration: 21.5 (µM), S9 metabolic activation: with S9, exposure time: 3-4 hours	0.22	3.5	94.8
concentration: 21.5 (µM), S9 metabolic activation: without S9, exposure time: 24 hours	0.28	2.04	45.8
concentration: 26.8 (µM), S9 metabolic activation: with S9, exposure time: 3-4 hours	0.34	3.32	102
concentration: 26.8 (µM), S9 metabolic activation: without S9, exposure time: 24 hours	0.37	1.93	42.4
concentration: 33.6 (µM), S9 metabolic activation: with S9, exposure time: 3-4 hours	0.4	3.8	92.9
concentration: 33.6 (µM), S9 metabolic activation: without S9, exposure time: 24 hours	–	–	37.5
concentration: 41.9 (µM), S9 metabolic activation: with S9, exposure time: 3-4 hours	0.44	3.08	77.6
concentration: 41.9 (µM), S9 metabolic activation: without S9, exposure time: 24 hours	0.34	2.11	42.3
concentration: 52.4 (µM), S9 metabolic activation: with S9, exposure time: 3-4 hours	0.62	4.3	74.3
concentration: 52.4 (µM), S9 metabolic activation: without S9, exposure time: 24 hours	0.38	1.56	41
concentration: 65.5 (µM), S9 metabolic activation: with S9, exposure time: 3-4 hours	0.54	3.98	70.3
concentration: 65.5 (µM), S9 metabolic activation: without S9, exposure time: 24 hours	0.35	1.84	46.6
concentration: 81.9 (µM), S9 metabolic activation: with S9, exposure time: 3-4 hours	0.56	4.82	69.6
concentration: 81.9 (µM), S9 metabolic activation: without S9, exposure time: 24 hours	0.42	1.32	46.6
concentration: 102 (µM), S9 metabolic activation: with S9, exposure time: 3-4 hours	0.48	5.22	61.6
concentration: 102 (µM), S9 metabolic activation: without S9, exposure time: 24 hours	–	–	32.6
concentration: 128 (µM), S9 metabolic activation: with S9, exposure time: 3-4 hours	0.48	4.62	61.3
concentration: 128 (µM), S9 metabolic activation: without S9, exposure time: 24 hours	0.38	1.68	45.9
concentration: 160 (µM), S9 metabolic activation: with S9, exposure time: 3-4 hours	0.54	6.5	69.3
concentration: 160 (µM), S9 metabolic activation: without S9, exposure time: 24 hours	0.24	1.9	44.4
concentration: 200 (µM), S9 metabolic activation: with S9, exposure time: 3-4 hours	0.58	6.04	57.6
concentration: 200 (µM), S9 metabolic activation: without S9, exposure time: 24 hours	0.08	1.66	42.4

CCCCCCCCCC [Decane]
Conditions	hypodiploid nuclei frequency, [3] [%]	micronucleus frequency, [1] [%]	relative survival, [2]
concentration: 4.5 (µM), S9 metabolic activation: with S9, exposure time: 3-4 hours	0.2	1.24	97.2
concentration: 4.5 (µM), S9 metabolic activation: without S9, exposure time: 24 hours	0.34	1.02	92.2
concentration: 5.63 (µM), S9 metabolic activation: with S9, exposure time: 3-4 hours	0.2	1.16	114
concentration: 5.63 (µM), S9 metabolic activation: without S9, exposure time: 24 hours	0.64	1.26	77.8
concentration: 7.04 (µM), S9 metabolic activation: with S9, exposure time: 3-4 hours	0.3	1.8	103
concentration: 7.04 (µM), S9 metabolic activation: without S9, exposure time: 24 hours	0.72	1.78	91.1
concentration: 8.8 (µM), S9 metabolic activation: with S9, exposure time: 3-4 hours	0.3	1.38	91.4
concentration: 8.8 (µM), S9 metabolic activation: without S9, exposure time: 24 hours	0.5	1.2	100
concentration: 11 (µM), S9 metabolic activation: with S9, exposure time: 3-4 hours	0.28	1.8	124
concentration: 11 (µM), S9 metabolic activation: without S9, exposure time: 24 hours	0.52	1.44	83.9
concentration: 13.7 (µM), S9 metabolic activation: with S9, exposure time: 3-4 hours	0.16	1.46	103
concentration: 13.7 (µM), S9 metabolic activation: without S9, exposure time: 24 hours	0.38	1	80.8
concentration: 17.2 (µM), S9 metabolic activation: with S9, exposure time: 3-4 hours	0.38	1.78	86
concentration: 17.2 (µM), S9 metabolic activation: without S9, exposure time: 24 hours	0.44	1.42	98.6
concentration: 21.5 (µM), S9 metabolic activation: with S9, exposure time: 3-4 hours	0.36	1.46	92.6
concentration: 21.5 (µM), S9 metabolic activation: without S9, exposure time: 24 hours	0.48	1.32	82
concentration: 26.8 (µM), S9 metabolic activation: with S9, exposure time: 3-4 hours	0.32	2.3	104
concentration: 26.8 (µM), S9 metabolic activation: without S9, exposure time: 24 hours	0.5	1.1	97.7
concentration: 33.6 (µM), S9 metabolic activation: with S9, exposure time: 3-4 hours	0.54	1.7	124
concentration: 33.6 (µM), S9 metabolic activation: without S9, exposure time: 24 hours	0.32	1	73.3
concentration: 41.9 (µM), S9 metabolic activation: with S9, exposure time: 3-4 hours	0.18	1.24	101
concentration: 41.9 (µM), S9 metabolic activation: without S9, exposure time: 24 hours	0.34	1.22	97.7
concentration: 52.4 (µM), S9 metabolic activation: with S9, exposure time: 3-4 hours	0.2	1.54	105
concentration: 52.4 (µM), S9 metabolic activation: without S9, exposure time: 24 hours	0.34	0.94	74.6
concentration: 65.5 (µM), S9 metabolic activation: with S9, exposure time: 3-4 hours	0.2	1.46	95.7
concentration: 65.5 (µM), S9 metabolic activation: without S9, exposure time: 24 hours	0.44	1.44	87
concentration: 81.9 (µM), S9 metabolic activation: with S9, exposure time: 3-4 hours	0.2	1.36	107
concentration: 81.9 (µM), S9 metabolic activation: without S9, exposure time: 24 hours	0.46	1.76	75.6
concentration: 102 (µM), S9 metabolic activation: with S9, exposure time: 3-4 hours	0.3	1.62	89.3
concentration: 102 (µM), S9 metabolic activation: without S9, exposure time: 24 hours	0.72	1.42	66.7
concentration: 128 (µM), S9 metabolic activation: with S9, exposure time: 3-4 hours	0.32	1.48	83
concentration: 128 (µM), S9 metabolic activation: without S9, exposure time: 24 hours	0.6	1.16	99.5
concentration: 160 (µM), S9 metabolic activation: with S9, exposure time: 3-4 hours	0.2	1.28	105
concentration: 160 (µM), S9 metabolic activation: without S9, exposure time: 24 hours	0.74	1.92	86.3
concentration: 200 (µM), S9 metabolic activation: with S9, exposure time: 3-4 hours	0.28	2	102
concentration: 200 (µM), S9 metabolic activation: without S9, exposure time: 24 hours	0.9	1.44	86.6

CC(C)COC(=O)c1ccccc1C(=O)OCC(C)C [Diisobutyl phthalate]
Conditions	hypodiploid nuclei frequency, [3] [%]	micronucleus frequency, [1] [%]	relative survival, [2]
concentration: 4.5 (µM), S9 metabolic activation: with S9, exposure time: 3-4 hours	0.32	2.04	175
concentration: 4.5 (µM), S9 metabolic activation: without S9, exposure time: 24 hours	0.74	1.16	113
concentration: 5.63 (µM), S9 metabolic activation: with S9, exposure time: 3-4 hours	0.26	1.74	159
concentration: 5.63 (µM), S9 metabolic activation: without S9, exposure time: 24 hours	0.56	1.62	117
concentration: 7.04 (µM), S9 metabolic activation: with S9, exposure time: 3-4 hours	0.3	1.18	181
concentration: 7.04 (µM), S9 metabolic activation: without S9, exposure time: 24 hours	0.4	1.04	130
concentration: 8.8 (µM), S9 metabolic activation: with S9, exposure time: 3-4 hours	0.3	1.26	184
concentration: 8.8 (µM), S9 metabolic activation: without S9, exposure time: 24 hours	0.76	1.6	115
concentration: 11 (µM), S9 metabolic activation: with S9, exposure time: 3-4 hours	0.24	1	196
concentration: 11 (µM), S9 metabolic activation: without S9, exposure time: 24 hours	0.62	1.76	123
concentration: 13.7 (µM), S9 metabolic activation: with S9, exposure time: 3-4 hours	0.18	1.36	187
concentration: 13.7 (µM), S9 metabolic activation: without S9, exposure time: 24 hours	0.74	1.34	122
concentration: 17.2 (µM), S9 metabolic activation: with S9, exposure time: 3-4 hours	0.32	1.24	183
concentration: 17.2 (µM), S9 metabolic activation: without S9, exposure time: 24 hours	0.68	1.64	108
concentration: 21.5 (µM), S9 metabolic activation: with S9, exposure time: 3-4 hours	0.2	1.36	149
concentration: 21.5 (µM), S9 metabolic activation: without S9, exposure time: 24 hours	0.6	1.3	98.6
concentration: 26.8 (µM), S9 metabolic activation: with S9, exposure time: 3-4 hours	0.24	1.36	184
concentration: 26.8 (µM), S9 metabolic activation: without S9, exposure time: 24 hours	1	1.8	99.8
concentration: 33.6 (µM), S9 metabolic activation: with S9, exposure time: 3-4 hours	0.4	2.12	166
concentration: 33.6 (µM), S9 metabolic activation: without S9, exposure time: 24 hours	0.74	1.94	110
concentration: 41.9 (µM), S9 metabolic activation: with S9, exposure time: 3-4 hours	0.28	1.88	197
concentration: 41.9 (µM), S9 metabolic activation: without S9, exposure time: 24 hours	1.06	1.18	86.9
concentration: 52.4 (µM), S9 metabolic activation: with S9, exposure time: 3-4 hours	0.3	1.68	158
concentration: 52.4 (µM), S9 metabolic activation: without S9, exposure time: 24 hours	0.54	1.7	85.7
concentration: 65.5 (µM), S9 metabolic activation: with S9, exposure time: 3-4 hours	0.34	1.94	189
concentration: 65.5 (µM), S9 metabolic activation: without S9, exposure time: 24 hours	1.06	1.4	91.9
concentration: 81.9 (µM), S9 metabolic activation: with S9, exposure time: 3-4 hours	0.32	1.9	183
concentration: 81.9 (µM), S9 metabolic activation: without S9, exposure time: 24 hours	0.9	1.44	82.9
concentration: 102 (µM), S9 metabolic activation: with S9, exposure time: 3-4 hours	0.26	1.46	209
concentration: 102 (µM), S9 metabolic activation: without S9, exposure time: 24 hours	0.8	1.4	76
concentration: 128 (µM), S9 metabolic activation: with S9, exposure time: 3-4 hours	0.18	1.36	179
concentration: 128 (µM), S9 metabolic activation: without S9, exposure time: 24 hours	1.08	1.66	80.6
concentration: 160 (µM), S9 metabolic activation: with S9, exposure time: 3-4 hours	0.28	1.32	160
concentration: 160 (µM), S9 metabolic activation: without S9, exposure time: 24 hours	1.28	2.24	57.5
concentration: 200 (µM), S9 metabolic activation: with S9, exposure time: 3-4 hours	0.3	1.88	172
concentration: 200 (µM), S9 metabolic activation: without S9, exposure time: 24 hours	0.82	2.06	57.1
